{
  "source": "the RNAGym collection of RNA variant scans (doi:10.1073/pnas.2313332121)",
  "parents": {"B1": {"name": "TPR 5TU (parent)", "chain": "GGAUCUUCUCGAUCUAACAAAAAAGACAAAUCUGCCACAAAGCUUGAGAGCAUCUUCGGAUGCAGAGGCGGCAGCCUUCGGUGGCGCGAUAGCGCCAACGUUCUCAACUAUGACACGCAAAACGCGUGCUCCGUUGAAUGGAGUUUAUCAUG"}},
  "note": "This sample is rich in variants without activity.",
  "data": [
    {"variants_of": "B1", "test": "polymerase ribozyme fitness, log enrichment relative to wild type (log ratio); higher = more active; in vitro selection for triplet polymerase activity", "method_in_brief": "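Streptavidin-bead capture of gel-excised extended constructs, followed by RT-PCR, closed a single triplicate in vitro selection round. That round began by annealing PCR-built, transcribed mutant libraries of each subunit of a heterodimeric triplet polymerase ribozyme with a biotinylated primer, the partner subunit and triplets, then incubating them frozen at −7 °C. After Illumina sequencing of inputs and outputs, genotypes needed ≥10 input reads and ≥1 read per output. Fitness is the base-2 logarithm of genotype enrichment over wild-type enrichment, using inverse-variance-weighted replicate averages.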", "values": [
      {"variant": "A17U C32U G128U", "polymerase ribozyme fitness (log ratio)": "≤ -4.2"},
      {"variant": "A16U A19U A26C A37C G74C A89C G94A C108U A113G G136A", "polymerase ribozyme fitness (log ratio)": "≤ -4.2"},
      {"variant": "A16U G42A U53A C85U C96G A120C", "polymerase ribozyme fitness (log ratio)": "≤ -4.2"},
      {"variant": "A17C A40G U55A G86C C103A A119C", "polymerase ribozyme fitness (log ratio)": "≤ -4.2"},
      {"variant": "A17C A47C G94C", "polymerase ribozyme fitness (log ratio)": -0.464},
      {"variant": "A17C U61G C85U G126A G140U U151A G152C", "polymerase ribozyme fitness (log ratio)": "≤ -4.2"},
      {"variant": "A17G C38U C54U C87A C103G A147G", "polymerase ribozyme fitness (log ratio)": "≤ -4.2"},
      {"variant": "A16U A19C A23C C51U C93A U135C U151G", "polymerase ribozyme fitness (log ratio)": "≤ -4.2"},
      {"variant": "A17U G42A G74C G86C G88U A91U A121U G133U", "polymerase ribozyme fitness (log ratio)": "≤ -4.2"},
      {"variant": "C18A G70C C87G C93A", "polymerase ribozyme fitness (log ratio)": "≤ -4.2"},
      {"variant": "C18G U45A C85G G92A C132A", "polymerase ribozyme fitness (log ratio)": "≤ -4.2"},
      {"variant": "A17C A26U G58U U102A C103A", "polymerase ribozyme fitness (log ratio)": "≤ -4.2"},
      {"variant": "A17C A91U", "polymerase ribozyme fitness (log ratio)": "≤ -4.2"},
      {"variant": "A17C G25A G62U G117U", "polymerase ribozyme fitness (log ratio)": -2.71},
      {"variant": "A17G G70U U82G C114A", "polymerase ribozyme fitness (log ratio)": "≤ -4.2"},
      {"variant": "A16U G65A A66G C85U C99U U101A A122U", "polymerase ribozyme fitness (log ratio)": "≤ -4.2"},
      {"variant": "A17U G42A A91C A122U G136C", "polymerase ribozyme fitness (log ratio)": "≤ -4.2"},
      {"variant": "A17U A28C A49C", "polymerase ribozyme fitness (log ratio)": "≤ -4.2"},
      {"variant": "A16U G68U C79A G88A", "polymerase ribozyme fitness (log ratio)": "≤ -4.2"},
      {"variant": "A17G C72U A147C", "polymerase ribozyme fitness (log ratio)": -0.924},
      {"variant": "A17G C93U", "polymerase ribozyme fitness (log ratio)": -0.578},
      {"variant": "A17G C18G U31G G68A C87U G133U", "polymerase ribozyme fitness (log ratio)": "≤ -4.2"},
      {"variant": "A17G G133U", "polymerase ribozyme fitness (log ratio)": -3.47},
      {"variant": "C18G U53G G94A C96A", "polymerase ribozyme fitness (log ratio)": "≤ -4.2"},
      {"variant": "C18G C36G U78A C85A", "polymerase ribozyme fitness (log ratio)": "≤ -4.2"},
      {"variant": "A16U G133C U146A", "polymerase ribozyme fitness (log ratio)": -3.79},
      {"variant": "A17U G50A", "polymerase ribozyme fitness (log ratio)": -2.57},
      {"variant": "C18A A37C G88A C93U", "polymerase ribozyme fitness (log ratio)": "≤ -4.2"},
      {"variant": "C18G A22C C79U C93A", "polymerase ribozyme fitness (log ratio)": "≤ -4.2"},
      {"variant": "C18A G141C", "polymerase ribozyme fitness (log ratio)": -0.603},
      {"variant": "C18G A41C C54G G62A A107G U134C", "polymerase ribozyme fitness (log ratio)": "≤ -4.2"},
      {"variant": "A17U A26C C76A G86A C96A C105G A115G", "polymerase ribozyme fitness (log ratio)": "≤ -4.2"},
      {"variant": "A17U C32U C54U C149U", "polymerase ribozyme fitness (log ratio)": "≤ -4.2"},
      {"variant": "A17G C36U C93G", "polymerase ribozyme fitness (log ratio)": -3.8},
      {"variant": "A17G C38U U77C C96A U148C", "polymerase ribozyme fitness (log ratio)": "≤ -4.2"},
      {"variant": "A17G C38U C69U A97U C114A", "polymerase ribozyme fitness (log ratio)": "≤ -4.2"},
      {"variant": "A17G A28C C69G U145C U146C U148G", "polymerase ribozyme fitness (log ratio)": "≤ -4.2"},
      {"variant": "A16U C27G G92A C105A C116U G124U G126A G141C", "polymerase ribozyme fitness (log ratio)": "≤ -4.2"},
      {"variant": "C18G G42A C54U G94A", "polymerase ribozyme fitness (log ratio)": "≤ -4.2"},
      {"variant": "A17U G48A A73G C79G C87A G88A G117A A121C", "polymerase ribozyme fitness (log ratio)": "≤ -4.2"},
      {"variant": "C18G G34U C57U C96U A147U", "polymerase ribozyme fitness (log ratio)": -2.53},
      {"variant": "A17U A66G C93U U139A G141A U146G", "polymerase ribozyme fitness (log ratio)": "≤ -4.2"},
      {"variant": "A17G G50C", "polymerase ribozyme fitness (log ratio)": -2.81},
      {"variant": "A17U A28C G46U G59C G86C G112C", "polymerase ribozyme fitness (log ratio)": "≤ -4.2"},
      {"variant": "C18G G62U A64G U139A A142U", "polymerase ribozyme fitness (log ratio)": "≤ -4.2"},
      {"variant": "A17U A49U A52C C57A C96G C114G U127G", "polymerase ribozyme fitness (log ratio)": "≤ -4.2"},
      {"variant": "C18U A39C C57U G83A C95U U148C C149A", "polymerase ribozyme fitness (log ratio)": "≤ -4.2"},
      {"variant": "C18A A22C A26U A40G C51U U55G A73C G81U G86U U90C U109C", "polymerase ribozyme fitness (log ratio)": "≤ -4.2"},
      {"variant": "C18U A47U A64C G92U A115G C132U A137G", "polymerase ribozyme fitness (log ratio)": "≤ -4.2"},
      {"variant": "A17G C35U C36U C95U", "polymerase ribozyme fitness (log ratio)": "≤ -4.2"},
      {"variant": "C18G A20G G25C U33G G68U C96U A98G", "polymerase ribozyme fitness (log ratio)": "≤ -4.2"},
      {"variant": "A17U C54A U55C A73G C93A C116G A121U", "polymerase ribozyme fitness (log ratio)": "≤ -4.2"},
      {"variant": "A17U A110U", "polymerase ribozyme fitness (log ratio)": "≤ -4.2"},
      {"variant": "C18G U45A A121U", "polymerase ribozyme fitness (log ratio)": -2.73},
      {"variant": "A17G C54U C57G C85G A98C A115G G152A", "polymerase ribozyme fitness (log ratio)": "≤ -4.2"},
      {"variant": "A16U U44A U45A C76U A142U", "polymerase ribozyme fitness (log ratio)": "≤ -4.2"},
      {"variant": "C18G A29G A41C G65C C75A C79A C96A", "polymerase ribozyme fitness (log ratio)": "≤ -4.2"},
      {"variant": "A17C G34C G83U G124U C125G A137C", "polymerase ribozyme fitness (log ratio)": "≤ -4.2"},
      {"variant": "A16U C43U C76A G94C G126U U151G", "polymerase ribozyme fitness (log ratio)": "≤ -4.2"},
      {"variant": "A17G G83U A107U U135C", "polymerase ribozyme fitness (log ratio)": "≤ -4.2"},
      {"variant": "A17G A39G C79G A89U C96G A142U", "polymerase ribozyme fitness (log ratio)": "≤ -4.2"},
      {"variant": "C18G A20U A22G A26C G50A U55A C95U", "polymerase ribozyme fitness (log ratio)": "≤ -4.2"},
      {"variant": "A17G U55C A89C G112U", "polymerase ribozyme fitness (log ratio)": "≤ -4.2"},
      {"variant": "A17U A30G G46A C75U C95U", "polymerase ribozyme fitness (log ratio)": "≤ -4.2"},
      {"variant": "A17U C93U G100A A107C G117A A121C U148G C149G", "polymerase ribozyme fitness (log ratio)": "≤ -4.2"},
      {"variant": "A17G C76U C93A U144C U151G", "polymerase ribozyme fitness (log ratio)": "≤ -4.2"},
      {"variant": "A17G G62A C63U G65A C96A C125G", "polymerase ribozyme fitness (log ratio)": "≤ -4.2"},
      {"variant": "A17G A52G C85G", "polymerase ribozyme fitness (log ratio)": -2.03},
      {"variant": "A16U U139G G140U", "polymerase ribozyme fitness (log ratio)": "≤ -4.2"},
      {"variant": "A16U A23U G50A C85G C125U G141C U145C A147G", "polymerase ribozyme fitness (log ratio)": "≤ -4.2"},
      {"variant": "C18A U33A U56A G88A C114U U130A", "polymerase ribozyme fitness (log ratio)": "≤ -4.2"},
      {"variant": "A16U A17U A26U C27G A49U C54A A66U C85A C116G", "polymerase ribozyme fitness (log ratio)": -3.74},
      {"variant": "C18U A37U U55A G86A", "polymerase ribozyme fitness (log ratio)": -3.67},
      {"variant": "A17U A39C U45A G74C A110U A122U", "polymerase ribozyme fitness (log ratio)": "≤ -4.2"},
      {"variant": "A17G G58A C93U U101G U139A", "polymerase ribozyme fitness (log ratio)": "≤ -4.2"},
      {"variant": "C18A A19G A37U U53A G83A U102G C132G G133A", "polymerase ribozyme fitness (log ratio)": "≤ -4.2"},
      {"variant": "C18U A24U A28C C35A C38G C79G G84C C116A C123G U144C", "polymerase ribozyme fitness (log ratio)": "≤ -4.2"},
      {"variant": "A17U C57G", "polymerase ribozyme fitness (log ratio)": -0.677},
      {"variant": "A17U A29C A66C C95A C132G", "polymerase ribozyme fitness (log ratio)": "≤ -4.2"},
      {"variant": "A17U G48C G50U C76A C93A", "polymerase ribozyme fitness (log ratio)": "≤ -4.2"},
      {"variant": "A17G G70A C75G C96U C99G", "polymerase ribozyme fitness (log ratio)": -4.15},
      {"variant": "A17U A24U A39U U45A G59C U135G C149A", "polymerase ribozyme fitness (log ratio)": "≤ -4.2"},
      {"variant": "A17U U44G U56A C87A C95U C118U", "polymerase ribozyme fitness (log ratio)": "≤ -4.2"},
      {"variant": "C18U A19U A64G A89G A119U U146C", "polymerase ribozyme fitness (log ratio)": "≤ -4.2"}
    ]}
  ]
}
